Measured values published in the BET-seq Pho4 binding data (Le et al. 2018).
The list shows a part of the results. These are noisy estimates, calculated here from bound and input reads.

The sequences below were run against T1, Pho4 (S. cerevisiae) (UniProt P07270) (assay: relative binding free energy (BET-seq); higher = weaker binding). Details: reference: library average.
T1 sequence: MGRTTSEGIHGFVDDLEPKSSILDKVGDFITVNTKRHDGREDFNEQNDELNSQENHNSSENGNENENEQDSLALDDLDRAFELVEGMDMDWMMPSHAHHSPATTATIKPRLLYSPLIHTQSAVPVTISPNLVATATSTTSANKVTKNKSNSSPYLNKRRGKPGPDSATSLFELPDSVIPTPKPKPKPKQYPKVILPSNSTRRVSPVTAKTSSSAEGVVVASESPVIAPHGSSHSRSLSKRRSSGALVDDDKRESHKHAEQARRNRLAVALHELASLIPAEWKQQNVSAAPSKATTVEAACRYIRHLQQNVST

| Sequence | relative binding free energy [kcal/mol] |
| --- | --- |
| TAAGGCACGTGTAGGG | 0.01 |
| AAATACACGTGGGCGT | -0.04 |
| ATTTTCACGTGATCAT | 0.43 |
| GTAGTCACGTGTAGGG | 0.24 |
| TTTTGCACGTGCTTGA | 0.02 |
| GGTGTCACGTGCAGCA | 0.13 |
| TTTCGCACGTGTAGGG | 0.12 |
| AAAAGCACGTGGGTAT | -0.18 |
| GGAAGCACGTGGTGTG | -0.26 |
| GGGCCCACGTGTGGTG | -0.1 |
| AACGGCACGTGTAGGT | -0.02 |
| CTAGTCACGTGTGTTT | 0.21 |
| TTTCTCACGTGTTTAA | 0.14 |
| TTCCGCACGTGTTTTG | -0.01 |
| GGGTCCACGTGCTGTT | 0.05 |
| AAGTTCACGTGTGATC | 0.43 |
| TTTGACACGTGGCGGT | -0.13 |
| ATGGGCACGTGGCTCT | -0.13 |
| ATTAGCACGTGAGTGC | 0.08 |
| TAGGTCACGTGGATCG | -0.05 |
| TATTGCACGTGGACAG | 0.01 |
| GTGGCCACGTGGAGAA | 0.02 |
| GTGCACACGTGGTTAT | -0.02 |

| Sequence | relative binding free energy [kcal/mol] |
| --- | --- |
| CTGCGCACGTGTGTGG | -0.15 |
| TCAGTCACGTGCGTGG | -0.14 |
| TTTGTCACGTGCGGGA | 0.05 |
| TATTTCACGTGTACGG | 0.11 |
| CGCGGCACGTGTTAGT | -0.06 |
| GGCAACACGTGGGGGA | -0.15 |
| TTTACCACGTGTGAGG | 0.01 |
| ATTTGCACGTGAGGCG | 0.06 |
| TGCGCCACGTGGCGGG | -0.27 |
| TGTAACACGTGAAGTA | 0.29 |
| ATCGGCACGTGGGTAT | -0.19 |
| AAGTTCACGTGAGGTT | 0.5 |
| AGGCACACGTGGTGTT | -0.14 |
| TTGTACACGTGATGGA | 0.14 |
| TGTGTCACGTGGTGAC | -0.01 |
| TTCGTCACGTGCAGGT | 0.08 |
| AAACGCACGTGGGTGT | -0.35 |
| GGATTCACGTGGCCTG | 0.18 |
| CTTATCACGTGTAGGA | 0.26 |
| TTATTCACGTGGGAAT | 0.29 |
| GGTGGCACGTGCTTTG | -0.13 |
| TAGAGCACGTGCGGTG | -0.12 |
| GGCGGCACGTGAGATT | 0.29 |

| Sequence | relative binding free energy [kcal/mol] |
| --- | --- |
| TTAGACACGTGTGTCA | 0.01 |
| AGGGTCACGTGTCTTT | 0.24 |
| GGATGCACGTGGCGGA | -0.06 |
| TATGTCACGTGTCGGA | -0.01 |
| AGATTCACGTGGTGAT | 0.24 |
| GGTAGCACGTGGGATG | -0.21 |
| GGCTTCACGTGTTTTA | 0.2 |
| GGTTACACGTGGAAGG | 0.23 |
| TGGATCACGTGCGCGT | 0.04 |
| TTTATCACGTGTCGCT | 0.16 |
| GTTCTCACGTGGGTGC | 0.12 |
| GTATTCACGTGTGGGA | 0.33 |
| TTATACACGTGTGGTA | 0.04 |
| GGGTACACGTGGATGT | 0.16 |
| TTGACCACGTGGTTTG | -0.08 |
| TTAGACACGTGGCTAT | -0.01 |
| GTTAGCACGTGTTGAG | 0.09 |
| GATAACACGTGTGGGT | 0.11 |
| CAGTTCACGTGTGCGG | 0.35 |
| AGGCTCACGTGGCGGG | 0.15 |
| GCGGCCACGTGGGGTA | -0.2 |
| GTGGACACGTGGTTTT | 0.03 |
| TGTAGCACGTGTATGG | 0 |

| Sequence | relative binding free energy [kcal/mol] |
| --- | --- |
| TTTATCACGTGGTAAG | 0.02 |
| AGGAACACGTGTCGTG | -0.01 |
| GAGGACACGTGGGTGT | -0.13 |
| GAACTCACGTGTGTGT | 0.14 |
| GTCGGCACGTGAAGTA | 0.18 |
| ACGGGCACGTGAATTT | 0.23 |
| GTGAACACGTGGTGTC | -0.09 |
| GGGGTCACGTGGGAGC | 0 |
| TATTCCACGTGTGTAA | 0.04 |
| AAAGACACGTGTGGTT | 0.18 |
| TGGAGCACGTGTAAAT | -0.02 |
| TGTAGCACGTGTGACG | -0.06 |
| GGGTGCACGTGGGCGG | -0.04 |
| GTTGACACGTGTATAT | 0.07 |
| TGTGACACGTGGATTA | 0.01 |
| GTGTTCACGTGACCGG | 0.46 |
| GGGCACACGTGCGGGG | -0.12 |
| GGGAACACGTGTGCAG | 0 |
| CTGCTCACGTGGTGGT | -0.04 |
| AGGCTCACGTGTAGGT | 0.26 |
| TTCCGCACGTGGGGGT | -0.12 |
| GTCGGCACGTGGTGAT | -0.13 |
| GTACGCACGTGGGGAT | -0.25 |

| Sequence | relative binding free energy [kcal/mol] |
| --- | --- |
| ATGAGCACGTGGTAGT | -0.16 |
| TATGCCACGTGATGGG | 0.07 |
| GAGCGCACGTGAGTGG | 0.22 |
| TGGTACACGTGGAAGG | 0.09 |
| GTTATCACGTGTCGTT | 0.31 |
| TAGGTCACGTGAGAGA | 0.22 |
| GGGCACACGTGTTGTC | 0.25 |
| ATGGTCACGTGTTTCA | -0.02 |
| TACTGCACGTGTAGTG | -0.12 |
| TAGGTCACGTGTTAAG | 0.21 |
| GTGGTCACGTGCATGG | 0.18 |
| ACTTTCACGTGGAGTG | 0.12 |
| GAGAACACGTGAGTAG | 0.43 |
| GGTTACACGTGTGGCG | 0.18 |
| TTCATCACGTGTTGGA | 0.17 |
| TATTGCACGTGTCAGT | -0.07 |
| GGTGTCACGTGTGCGA | 0.24 |
| GGGAGCACGTGGTTTC | -0.02 |
| GTTTACACGTGTTTTA | 0.23 |
| GCGTGCACGTGAGGGG | 0.12 |
| GGTTACACGTGGTTAG | 0.14 |
| TCGCGCACGTGGGGGC | -0.3 |
| ATATTCACGTGGTGGG | 0.19 |
